# The full ranking holds about 33,000 sequences; the median of “E-score (-0.5 to 0.5)” is about -0.043, and the highest 2% start at about 0.37. The list shows a part of the results.
# Target: T1, Upc2 (UniProt Q12151)
# T1 sequence: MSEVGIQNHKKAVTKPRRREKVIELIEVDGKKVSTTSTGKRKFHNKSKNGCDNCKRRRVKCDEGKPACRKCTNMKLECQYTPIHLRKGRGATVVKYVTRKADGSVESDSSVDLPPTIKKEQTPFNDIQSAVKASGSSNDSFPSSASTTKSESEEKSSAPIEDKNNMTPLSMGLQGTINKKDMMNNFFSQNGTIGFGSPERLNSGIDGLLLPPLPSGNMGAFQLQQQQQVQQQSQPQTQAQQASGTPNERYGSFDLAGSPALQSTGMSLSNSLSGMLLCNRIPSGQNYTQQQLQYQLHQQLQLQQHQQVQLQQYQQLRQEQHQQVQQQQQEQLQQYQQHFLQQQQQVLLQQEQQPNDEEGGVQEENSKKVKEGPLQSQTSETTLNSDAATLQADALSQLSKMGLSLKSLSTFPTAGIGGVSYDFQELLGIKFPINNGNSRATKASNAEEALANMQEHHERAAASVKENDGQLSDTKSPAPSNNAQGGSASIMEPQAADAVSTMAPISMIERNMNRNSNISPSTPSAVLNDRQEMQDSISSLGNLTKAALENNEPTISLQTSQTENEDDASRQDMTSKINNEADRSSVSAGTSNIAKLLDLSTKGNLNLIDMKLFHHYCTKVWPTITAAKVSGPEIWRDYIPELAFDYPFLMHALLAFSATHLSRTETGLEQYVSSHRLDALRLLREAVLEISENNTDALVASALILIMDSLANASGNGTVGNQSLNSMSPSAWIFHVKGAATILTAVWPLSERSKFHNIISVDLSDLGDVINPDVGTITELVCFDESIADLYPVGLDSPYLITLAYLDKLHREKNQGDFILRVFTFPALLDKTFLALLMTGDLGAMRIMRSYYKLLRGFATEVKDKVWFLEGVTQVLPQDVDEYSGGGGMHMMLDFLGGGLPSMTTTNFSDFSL
# Test: PBM E-score (8-mer binding enrichment) (E-score (-0.5 to 0.5)); higher = stronger / more preferred TF binding; most listed sequences are background and not binding sites
# Details: protein concentration: 200 nM; construct: GST-full length
# How it was run: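 Using PURExpress in vitro transcription/translation, GST-tagged yeast transcription factors were made in full-length or DNA-binding-domain form. These were applied at about 100-200 nM to double-stranded universal all-10-mer Agilent arrays, and bound protein was detected with fluorescent anti-GST. Scans were normalised with masliner before the Universal PBM Analysis Suite assigned E-scores to ungapped eight-base words pooled with their reverse complements.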
row,Sequence,PBM E-score
1,GCGAACAA,0.139
2,GCGTCTCA,-0.0772
3,ACCGCCCA,-0.0354
4,AAGAGACA,0.134
5,AACAGGGC,-0.115
6,AAAAATCC,-0.152
7,GATCCAGC,0.052
8,ATTCTGGC,-0.0354
9,AAAGAAAC,0.0617
10,AGCTATAA,0.0688
11,CGGGGAAG,-0.0185
12,ATGAGCAC,-0.2
13,ACGTGAAG,0.101
14,CCACGTAC,0.227
15,CAGCGAGA,-0.115
16,ACTGATTG,-0.156
17,AACCTATT,0.0505
18,AGGGAACG,0.39
19,CCCTAAGA,-0.156
20,CCAAGACC,-0.279
21,ATCGTTCA,0.443
22,AGATATAA,0.0828
23,CTTTTTCA,-0.0478
24,CTAAAGAC,-0.271
25,GGCCTAAC,0.0516

row,Sequence,PBM E-score
1,CAACTGCC,-0.104
2,GCTAGGGA,-0.201
3,ATCCACCC,-0.179
4,TCAGTGAA,0.00083
5,ACCTGGCG,-0.19
6,CCATGATC,-0.257
7,ATACGAGC,0.489
8,CATACTGG,0.0014
9,GTTCTGTA,0.0485
10,ACTTCAGG,-0.216
11,AGAACATA,0.132
12,AAGGAACG,0.347
13,ATCATACG,0.383
14,AGCCGCCG,-0.247
15,ATACTGAA,0.0552
16,AACACCTG,-0.0435
17,ATCCGGCC,0.0361
18,CTTGACAC,-0.345
19,GCCCTATA,-0.0587
20,TAAAAAGA,-0.124
21,ACGTGCGC,0.12
22,CAACGCCA,-0.169
23,TTCCCAAA,0.0575
24,CATGCTGA,-0.0631
25,AGGCTATG,-0.214

row,Sequence,PBM E-score
1,CGTGATTA,0.0822
2,GAGTTAAC,0.0471
3,CCAGGCGC,-0.181
4,ACGACGAC,0.362
5,GAACATCA,-0.0243
6,GCTCGTCC,-0.249
7,ATGTGTAA,-0.0695
8,CAGTGCGC,-0.241
9,CGTTGACC,0.154
10,GAAGCATC,-0.0855
11,CCAATGGA,-0.0744
12,CAGCTGGC,-0.247
13,CTTAACGC,0.17
14,ACCCCAGG,-0.29
15,CTGGAACC,-0.0119
16,AACCAGCT,-0.0737
17,AGTCAGAT,-0.132
18,TCTCGAGA,-0.0667
19,AGGTCTAT,0.0364
20,AGATCAAT,-0.087
21,GCTTATAA,0.11
22,ACCGCAGA,-0.151
23,ACATGTTA,0.119
24,CTAGTATC,-0.0228
25,AACATACT,0.0309

row,Sequence,PBM E-score
1,TAACACCA,0.0919
2,CATAAGCA,-0.183
3,CTATATGC,-0.124
4,CGACGCTA,0.237
5,AGCCGAGG,0.0685
6,AATTTGAA,0.165
7,GATCTAGC,0.0193
8,CCGATAAG,-0.103
9,CCCGTGCA,-0.116
10,CCTCAGAG,-0.284
11,AGCCTTAG,-0.165
12,AGGTGTGC,-0.195
13,ACATTATG,0.169
14,GATTGAAA,-0.00337
15,AAGGCTGG,-0.303
16,CCCAAAAG,-0.0866
17,CTCACGAC,-0.146
18,AGTGGAGA,-0.159
19,ATAGTGGC,-0.0297
20,ATAGGGGG,-0.16
21,ACGACAGT,0.37
22,AATACTCA,-0.0838
23,TACGCGCA,0.279
24,AGTCTGGC,-0.157
25,CGAACATC,0.136

row,Sequence,PBM E-score
1,GTCCCAGA,0.0257
2,CCCGCGTA,0.141
3,CTCGGTAC,0.242
4,TACCGGAA,-0.116
5,CCCGACAA,0.0724
6,CTAGGACC,-0.202
7,AGTAGAGA,-0.103
8,GAGCGGGC,-0.0683
9,AGGATGAA,-0.116
10,ATGGGCAC,-0.111
11,GCGCTCAC,-0.0386
12,ACAATGGG,-0.00604
13,AGTATAAA,0.238
14,CGTCTGTA,0.0994
15,GAAACCCA,-0.0512
16,CTTAACAA,-0.00049
17,AGTCCCGG,-0.235
18,AAAGCTCA,-0.0475
19,AGACAATC,-0.134
20,ACAGATCG,-0.0319
21,CTGCACGC,-0.268
22,AAGCCTAG,0.0183
23,TGAGACCA,-0.195
24,ATCTGTTG,-0.199
25,AGCTGCGG,-0.00084

row,Sequence,PBM E-score
1,GCGCTATA,0.152
2,CACGTTAA,0.131
3,CGTAGGAC,0.0465
4,GACACAAA,-0.113
5,CCTTTCTA,-0.0882
6,ACAAGAAA,-0.0102
7,ACCAGGAC,-0.0418
8,AGGCGAGA,-0.153
9,AGAATGAG,-0.212
10,CCACGTCG,0.0289
11,AGAATCAC,-0.166
12,GCTTACTA,-0.0799
13,ACAACGGG,0.0146
14,CGACTAGA,-0.0944
15,CCAGGCTA,-0.185
16,ACTCACCG,-0.0668
17,CGGAATCC,-0.229
18,CTCGTGCA,0.0879
19,CGCGATAC,0.267
20,AATCCATA,0.0162
21,CATTTGAC,-0.304
22,CCGACGGA,-0.0042
23,GTAGGACA,-0.0315
24,CTTGAGCA,-0.197
25,ACGGCAAT,0.147

row,Sequence,PBM E-score
1,GCGACTCA,-0.0769
2,GGAACAAA,0.139
3,GAAAATTA,0.0345
4,CAGGCTCG,0.153
5,TCACGTGA,0.0354
6,GTCCCAAA,0.0572
7,CTAACTAC,-0.133
8,CCTACATC,-0.233
9,GCTCATCA,-0.195
10,ACAGACAC,-0.0608
11,CGTGCTTA,-0.0674
12,ACTATTCT,-0.114
13,GCCATCCC,-0.187
14,CTCGCGTC,0.109
15,CAATATAC,0.278
16,AGTTGACA,-0.149
17,ACCGCATA,0.149
18,CCGGCGTC,-0.00021
19,ACACCGAT,-0.105
20,TGAGCAAA,-0.0755
21,AGAACGCA,0.014
22,TCGATCAA,-0.0204

# — the supplement of paper PMC3334620
